“And” between values parts separate entries of the source, which are not always exact repeats. Equal entries are not always repeated. Inconclusive results, whose numbers are uncertain, are shown with a selection of clear calls. For some assays here: A potency beside an inconclusive call is a rough fit, not a confirmed value. Where a structure was tested more than once in an assay, its records may differ in their call. The source made the active and inactive calls. Unless noted, the call rests on the fitted dose curve; in most records, active means well fitted curve in the direction sought with a large enough effect in the repeat runs; inconclusive means weak or mixed curves; inactive means no such curve, though single readings can be large; an effect the other way counts as inactive or inconclusive.
Experiments:
[1] = A CellTox Green Cytotoxicity Assay to monitor cytotoxicity in HepG2 cells - 8 hour (AID 1224890); further: nearly all actives have a fitted effect of over 45% in size; further: potency means the concentration at half of the fitted maximal effect
Summary of the method: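 Real-time cytotoxicity: fluorescence of a cell-impermeant cyanine dye binding DNA of dead HepG2 cells, measured repeatedly (0–40 h) during compound exposure at 37 C. Cells seeded 600/well with reagent, dosed after 5 h.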

[2] = qHTS assay to identify small molecule antagonists of the androgen receptor (AR) signaling pathway using the MDA cell line in the presence of 0.5 nM R1881 - cell viability counter screen (AID 1259242); further: nearly all actives have a fitted effect of over 45% in size; further: potency means the concentration at half of the fitted maximal effect
Summary of the method: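 Live-cell protease activity was measured by CellTiter-Fluor fluorescence after 30 min. Before that, MDA-kb2 MMTV-luciferase cells had 16 hr at 37C without CO2, exposed to test compounds and 0.5 nM R1881 final.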

[3] = biological target: Estrogen receptor (Homo sapiens) (UniProt P03372); experiment: qHTS assay to identify small molecule antagonists of the estrogen receptor alpha (ER-alpha) signaling pathway using the BG1 cell line in the presence of 0.1 nM 17-beta-estradiol (AID 1259244); further: potency means the concentration at half of the fitted maximal effect; nearly all actives have a fitted effect of over 50% in size
UniProt P03372, sequence (P03372 whole entry, looked up): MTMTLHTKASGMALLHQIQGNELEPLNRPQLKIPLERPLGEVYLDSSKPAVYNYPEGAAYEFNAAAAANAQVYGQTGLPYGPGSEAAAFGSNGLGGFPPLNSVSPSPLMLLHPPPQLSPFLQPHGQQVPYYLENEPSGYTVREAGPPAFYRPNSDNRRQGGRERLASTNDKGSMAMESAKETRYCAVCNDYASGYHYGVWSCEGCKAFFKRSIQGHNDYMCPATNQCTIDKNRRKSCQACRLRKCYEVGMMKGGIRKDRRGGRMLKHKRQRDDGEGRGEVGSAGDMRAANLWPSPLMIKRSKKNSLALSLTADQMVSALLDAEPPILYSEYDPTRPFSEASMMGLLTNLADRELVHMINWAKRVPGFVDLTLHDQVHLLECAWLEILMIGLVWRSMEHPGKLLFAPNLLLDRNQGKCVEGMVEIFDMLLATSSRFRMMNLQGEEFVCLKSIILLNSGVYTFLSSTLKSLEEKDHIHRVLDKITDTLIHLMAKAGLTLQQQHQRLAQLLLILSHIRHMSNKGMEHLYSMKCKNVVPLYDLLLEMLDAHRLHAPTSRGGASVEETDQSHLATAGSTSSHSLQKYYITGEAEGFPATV
Summary of the method: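 Luciferase luminescence (ONE-Glo, 30 min at room temperature) was read after 22 hr at 37C exposure to compounds plus 17beta-estradiol at 0.1 nM final. Cells were VM7Luc4E2 with endogenous ER-alpha and an ERE-driven luciferase, pre-cultured 5 days in hormone-depleted medium.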

[4] = qHTS assay to identify small molecule HDAC inhibitors (AID 1259364); further: potency means the concentration at half of the fitted maximal effect; nearly all actives have a fitted effect of over 45% in size
Summary of the method: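 Luminescence read after 30 min room-temperature HDAC-Glo incubation measures cellular class I/II HDAC activity. Compounds were applied for 2 hr at 37 C to HCT-116 wild-type cells seeded the day before.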

[5] = biological target: Estrogen receptor beta (Homo sapiens) (UniProt Q92731); experiment: qHTS assay to identify small molecule agonists of the estrogen receptor beta (ER-beta) signaling pathway (AID 1259377; active means well fitted activation curve with a large enough effect in the signal ratio in the repeat runs, not every such curve was filed as active; inconclusive means weak or mixed curves, or effect the other way; the % refers to the signal ratio; further: potency means the concentration at half of the fitted maximal effect; on activation: on the % scale 0 is the no-effect control and ±100 the full control effect); details: ER-beta-UAS-bla HEK293T, beta-lactamase FRET ratio, 16 h; activation: at 92.4 µM (top of the series) unless noted
UniProt Q92731, sequence (Q92731 whole entry, looked up): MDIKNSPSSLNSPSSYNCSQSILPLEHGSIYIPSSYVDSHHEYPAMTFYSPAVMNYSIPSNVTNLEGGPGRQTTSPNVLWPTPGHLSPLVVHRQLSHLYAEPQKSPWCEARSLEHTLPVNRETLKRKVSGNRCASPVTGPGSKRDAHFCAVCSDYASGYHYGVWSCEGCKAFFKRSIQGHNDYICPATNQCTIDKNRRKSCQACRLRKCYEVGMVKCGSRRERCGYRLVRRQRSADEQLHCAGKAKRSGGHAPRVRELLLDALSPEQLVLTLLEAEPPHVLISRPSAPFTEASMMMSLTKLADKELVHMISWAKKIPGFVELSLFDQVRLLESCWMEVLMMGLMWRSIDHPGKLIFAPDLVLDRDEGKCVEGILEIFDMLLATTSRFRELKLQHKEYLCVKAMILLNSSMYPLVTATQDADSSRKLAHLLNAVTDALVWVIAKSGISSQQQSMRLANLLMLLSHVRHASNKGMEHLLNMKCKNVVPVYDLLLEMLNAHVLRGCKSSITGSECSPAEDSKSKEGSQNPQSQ
Summary of the method: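 Beta-lactamase reporter readout: fluorescence of LiveBLAzer B/G FRET substrate after 2 h at room temperature, following 16 h compound treatment of ER-beta-UAS-bla HEK293T cells at 37C in 2% charcoal-stripped FBS medium.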

[6] = biological target: Estrogen receptor beta (Homo sapiens) (UniProt Q92731); experiment: qHTS assay to identify small molecule antagonists of the estrogen receptor beta (ER-beta) signaling pathway (AID 1259378; active means well fitted inhibition curve with a large enough effect in the signal ratio in the repeat runs, not every such curve was filed as active; inconclusive means weak or mixed curves, or effect the other way; inactive means no such curve, though single readings can be large or run the other way; the % refers to the signal ratio; further: potency means the concentration at half of the fitted maximal effect; on activity, negative = inhibition: on the % scale 0 is the no-effect control and ±100 the full control effect); details: ER-beta-UAS-bla HEK293T, beta-lactamase FRET ratio, 16 h; activity, negative = inhibition: at 92.4 µM (top of the series) unless noted
Summary of the method: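 ER-beta-UAS-bla HEK293T cells in 2% charcoal-stripped FBS medium treated with compound plus 1nM final 17-beta-estradiol for 16 hr at 37C. Beta-lactamase reporter read by FRET substrate fluorescence after 2 hours at room temperature.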

[7] = qHTS assay to identify small molecule agonists of the estrogen receptor beta (ER-beta) signaling pathway - cell viability counter screen (AID 1259380); further: potency means the concentration at half of the fitted maximal effect; nearly all actives have a fitted effect of over 30% in size
Summary of the method: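 Cell viability counter screen: CellTiter-Glo luminescence (30 min, room temperature) measured in the same wells as the beta-lactamase readout, after 16 hr compound exposure at 37C of ER-beta-bla HEK293T cells in 2% charcoal-stripped FBS medium.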

[8] = qHTS assay to identify small molecule antagonists of the estrogen receptor beta (ER-beta) signaling pathway - cell viability counter screen (AID 1259382); further: potency means the concentration at half of the fitted maximal effect; nearly all actives have a fitted effect of over 55% in size
Summary of the method: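 Cytotoxicity was measured in the same wells by CellTiter-Glo luminescence after 30 min at room temperature. Cells were ER-beta-bla HEK293T in charcoal-stripped serum, given compound together with 1 nM E2 and incubated 16 h at 37C.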

[9] = qHTS assay to identify small molecule agonists or antagonists of the thyroid stimulating hormone receptor (TSHR) signaling pathway - wild type cell line counter screen (AID 1259384; calls by dose curve; further: potency means the concentration at half of the fitted maximal effect; on cAMP activity change: on the % scale 0 is the no-effect control and ±100 the full control effect); details: HEK293 wild type, cAMP HTRF counter-screen; cAMP activity change: at 92.4 µM (top of the series), stronger effect = higher value unless noted
Summary of the method: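 Wild-type Hek293 cells, 800/well, 18 h at 37C, then compound with Ro20-1724 for 30 min RT. cAMP by HTRF (cAMP-d2/anti-cAMP cryptate), 1 h RT, fluorescence read. 15 concentrations, triplicates.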

[10] = qHTS assay to identify small molecule phospholipidosis (PLD) inducers (AID 1259344; active means well fitted curve in the direction sought with a large enough effect; inconclusive means small, poorly fitted or top-dose-only effect, or another doubt; inactive means no such curve, though single readings can be large; an effect the other way counts as inactive or inconclusive; further: on the % scale 0 is the no-effect control and ±100 the full control effect)
Summary of the method: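 Read-out is LipidTOX Red fluorescence (ex 595/em 615) imaged in HepG2 cells after 24 h compound exposure at 37 C, with Hoechst nuclear counterstain (ex 352/em 461) allowing per-cell normalisation.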

[11] = qHTS assay to identify small molecule antagonists of the estrogen receptor alpha (ER-alpha) signaling pathway using the BG1 cell line in the presence of 0.1 nM 17-beta-estradiol - cell viability counter screen (AID 1259241); further: nearly all actives have a fitted effect of over 40% in size; further: potency means the concentration at half of the fitted maximal effect
Summary of the method: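 Live-cell protease activity (CellTiter-Fluor fluorescence, 30 min) was read in the same wells after VM7Luc4E2 cells had been exposed to compounds with 0.1 nM 17beta-estradiol for 22 hr at 37C.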

[12] = qHTS assay to identify small molecule agonists of the sonic hedgehog signaling (Shh) pathway - cell viability counter screen (AID 1259366); further: potency means the concentration at half of the fitted maximal effect; nearly all actives have a fitted effect of over 50% in size
Summary of the method: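 CellTiter-Fluor fluorescence read-out, 1 hr at 37C, added after 23hr compound exposure. Cells: 3T3 Gli1-Luc, an NIH/3T3 clone with stably integrated Gli1-Luc reporter, plated 4hr before compound.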

[13] = qHTS assay to identify small molecule antagonists of the sonic hedgehog signaling (Shh) pathway - cell viability counter screen (AID 1259367); further: potency means the concentration at half of the fitted maximal effect; nearly all actives have a fitted effect of over 55% in size
Summary of the method: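 Fluorescence read-out (CellTiter-Fluor, 1 hr at 37C) taken after 23 hr compound treatment of 3T3 Gli1-Luc cells stimulated with conditioned medium. Cells were seeded at 2,000 per well and pre-incubated 4 hr.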

[14] = qHTS assay to identify small molecule antagonists of the sonic hedgehog signaling (Shh) pathway (AID 1259369; calls by dose curve; further: potency means the concentration at half of the fitted maximal effect; nearly all actives have a fitted effect of over 45% in size)
Summary of the method: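 Antagonist mode: compound added to 3T3 Gli1-Luc cells followed by conditioned-medium stimulation, 24 h at 37 C, 5% CO2. Inhibition taken as loss of Gli1-driven luciferase luminescence.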

[15] = qHTS assay to identify small molecule agonists of the androgen receptor (AR) signaling pathway in the presence of an antagonist - cell viability counter screen (AID 1259379); further: potency means the concentration at half of the fitted maximal effect; nearly all actives have a fitted effect of over 25% in size
Summary of the method: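 Cytotoxicity counter-screen run in the same wells as the nilutamide-challenged (3.0 µM final) AR agonist assay in MDA-kb2 cells. Compounds tested at 15 concentrations for 16 h, 37 °C without CO2; CellTiter-Fluor fluorescence read.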

[16] = qHTS assay to identify small molecule HDAC inhibitors - cell viability counter screen (AID 1259365); further: potency means the concentration at half of the fitted maximal effect; nearly all actives have a fitted effect of over 50% in size
Summary of the method: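 HCT-116 (wild type), 1,500 cells/well, overnight 37C/5% CO2; compound in DMSO 2hr; CellTiter-Glo 30min RT; luminescence read.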
Tags describe the fitted curve by direction and shape or compound fluorescence and quenching.

Q: Which Potency [1] does the source give for COC(=O)c1nc(Cl)c(Cl)nc1N here?
A: inconclusive: 10.7 µM [activator, single point]

Q: What about the Potency [2] of the same molecule?
A: inconclusive: 29.8 µM [cytotoxic, partial curve]

Q: What about the Potency [3] of the same molecule?
A: inconclusive: 10.6 µM [inhibitor, partial curve, poor fit]

Q: And the Potency [4]?
A: inconclusive: 23.7 µM [inhibitor, partial curve]

Q: And the Potency [5]?
A: inconclusive: 29.8 µM [fluorescent, partial curve]

Q: And the Potency [6]?
A: inconclusive: 33.5 µM [fluorescent]

Q: And the Potency [7]?
A: active: 29.8 µM

Q: And the Potency [8]?
A: inconclusive: 33.5 µM [cytotoxic, single point]

Q: What about the Potency [9] of the same molecule?
A: inactive

Q: Which Potency [1] does the source give for NS(=O)(=O)c1cc2c(cc1Cl)NC(CC1CCCC1)NS2(=O)=O (stereo unspecified) here?
A: inconclusive: 30.1 µM [activator, single point]

Q: What about the Potency [2] of the same molecule?
A: inactive

Q: What about the Potency [10] of the same molecule?
A: inactive

Q: For O=C(O)c1ccc(C(=O)O)cc1, which Potency [1] is on record?
A: inconclusive: 21.9 µM [activator, partial curve]

Q: Which results are given for C#C[C@]1(O)CC[C@H]2[C@@H]3CCc4cc(O)ccc4[C@H]3CC[C@@]21C?
A: Potency [1]: inconclusive: 0.0015 µM [activator, full curve, poor fit]; Potency [11]: inconclusive: 33.5 µM [cytotoxic, single point]; Potency [12]: inconclusive: 38.3 µM [cytotoxic, partial curve, poor fit]; Potency [13]: inconclusive: 34.1 µM [cytotoxic, partial curve, poor fit]; Potency [14]: inconclusive: 26.6 µM [inhibitor, partial curve, poor fit]; Potency [15]: inconclusive: 54.1 µM [cytotoxic, partial curve] and inconclusive: 68.6 µM [cytotoxic, partial curve, poor fit]; Potency [7]: inconclusive: 33.5 µM [cytotoxic, single point]; Potency [8]: inconclusive: 38.6 µM [cytotoxic, partial curve]

Q: With CCCCN as the molecule, how does the Potency [1] read?
A: inactive

Q: With COc1cccc2c1C(=O)c1c(O)c3c(c(O)c1C2=O)C[C@@](O)(C(C)=O)C[C@@H]3O[C@H]1C[C@H](N)[C@H](O)[C@H](C)O1 as the molecule, how does the Potency [1] read?
A: inconclusive: 26.8 µM [activator, single point]

Q: And the Potency [11]?
A: active: 30.8 µM and active: 13.3 µM

Q: And the Potency [2]?
A: inconclusive: 13.3 µM [cytotoxic, partial curve, poor fit]

Q: What about the Potency [12] of the same molecule?
A: active: 615 nM and active: 2.11 µM

Q: And the Potency [14]?
A: active: 19.4 nM and inconclusive: 10.6 nM [inhibitor, full curve, poor fit]

Q: What about the Potency [6] of the same molecule?
A: inconclusive: 69 µM [cytotoxic, single point] and active: 4.22 µM

Q: What about the Potency [7] of the same molecule?
A: active: 77.4 µM

Q: Which results are given for C1CNCCN1?
A: Potency [1]: inactive; Potency [3]: inconclusive: 70.6 µM [inhibitor, partial curve, poor fit]; Potency [12]: inconclusive: 70.6 µM [cytotoxic, single point]; Potency [13]: inconclusive: 70.6 µM [cytotoxic, single point]; activation [5]: inconclusive: 12.2%; Potency [6]: inactive

Q: Which results are given for CCN(CC)C(=O)c1cc(S(=O)(=O)Cc2ccccc2)c(N2CCC(c3ccccc3)CC2)cc1N(CC)CCN(C)C?
A: Potency [1]: active: 19.3 µM; Potency [2]: inconclusive: 24.1 µM [cytotoxic, single point]; Potency [12]: active: 13.5 µM; Potency [14]: active: 6.78 µM; Potency [6]: active: 21.4 µM; Potency [15]: inconclusive: 24.1 µM [cytotoxic, single point]; Potency [7]: active: 19.1 µM; Potency [8]: active: 19.1 µM

Q: Which Potency [1] does the source give for CN(C)c1ccc(C(=C2C=CC(=[N+](C)C)C=C2)c2ccc(N(C)C)cc2)cc1 here?
A: inconclusive: 15.4 µM [activator, partial curve]

Q: And the Potency [2]?
A: active: 7.66 µM and active: 6.86 µM and active: 3.35 µM

Q: What about the Potency [4] of the same molecule?
A: active: 9.64 µM and active: 8.63 µM and active: 11.9 µM

Q: What about the Potency [16] of the same molecule?
A: active: 13.6 µM and active: 27.3 µM and active: 11.9 µM

Q: What about the Potency [13] of the same molecule?
A: active: 9.64 µM and active: 30.6 µM and active: 10.6 µM

Q: What about the Potency [14] of the same molecule?
A: active: 1.53 µM and active: 864 nM and active: 3.35 µM

Q: What about the Potency [5] of the same molecule?
A: inconclusive: 12.1 µM

Q: And the Potency [6]?
A: active: 27.2 µM and inconclusive: 77 µM [inhibitor] and active: 37.6 µM

Q: What about the Potency [9] of the same molecule?
A: inconclusive: 15.9 µM and inconclusive: 16.6 µM and inconclusive: 12.8 µM

Q: With CC(O)COc1ccccc1 (stereo unspecified) as the molecule, how does the Potency [1] read?
A: inactive

Q: And the Potency [11]?
A: inactive

Q: And the Potency [14]?
A: inconclusive: 27.7 µM [inhibitor, full curve, poor fit]

Q: And the Potency [7]?
A: inconclusive: 43.3 µM [rising, partial curve, poor fit]
